The test has as its target HIV-1 HXB2 gp41 (from the HXB2 gp160 gene), on single-round luciferase virus (HIV-1 (HXB2)). Kind of test: cell-based or functional assay.

Results on one molecule are retold here after US7811578B2, “Soluble chimeric peptide inhibitors of HIV entry comprising an IZ trimeric coiled-coil peptide and HIV gp41 N-helix coiled-coil peptide” (Whitehead Institute for Biomedical Research, dated 2010).

In the case of RMKQIEDKIEEIESKQKKIENEIARIKKLIGERY (N-terminal acetyl, C-terminal amide) [GCN4-pIQI′], the “IC50 (nm), viral infectivity (HIV luciferase assay)” value is greater than 10 µM.
